Results as given in paper PMC6602471.
This is one part of the list. At the low end of the ranking the order means little.

biological target: T1, ETS1 (UniProt P14921); experiment: custom PBM; details: custom protein-binding microarray; buffer, salt, pH and temperature not stated; high values mean tight binding; double strand, one strand shown
T1 sequence: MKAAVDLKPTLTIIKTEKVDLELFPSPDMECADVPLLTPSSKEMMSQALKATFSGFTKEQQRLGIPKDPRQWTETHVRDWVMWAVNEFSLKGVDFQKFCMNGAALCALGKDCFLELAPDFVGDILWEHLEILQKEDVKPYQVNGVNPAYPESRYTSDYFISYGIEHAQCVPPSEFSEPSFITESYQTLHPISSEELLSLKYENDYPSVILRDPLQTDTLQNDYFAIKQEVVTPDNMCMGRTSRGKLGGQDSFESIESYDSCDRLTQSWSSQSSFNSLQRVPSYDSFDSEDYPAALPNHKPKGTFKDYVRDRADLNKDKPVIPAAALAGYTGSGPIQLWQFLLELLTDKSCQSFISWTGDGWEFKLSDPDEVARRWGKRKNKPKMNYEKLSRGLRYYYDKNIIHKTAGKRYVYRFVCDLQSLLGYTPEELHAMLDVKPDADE

Row | Sequence | binding signal (log fluorescence intensity)
1 | CGGAAGTGTCGTAAACGTCGGATTTCCGGTTCTTCTGTCTTGATTCGCTTGACGCTGCTG | 12.5
2 | TAAAGGGAAGACGGTTGTGGTAGTTCCGGGTGTTAAGTCTTGATTCGCTTGACGCTGCTG | 8.6
3 | GCTGCTGTGGTGCATACCCCACCGGATGTGACCCCGGTCTTGATTCGCTTGACGCTGCTG | 10.3
4 | CGGAAGTGTCGTAAACGTCGGATATCCGGTTCTTATGTCTTGATTCGCTTGACGCTGCTG | 11.9
5 | GGAAAAAGGCCCAGGGTAACACCGGAAGTTGGCTTAGTCTTGATTCGCTTGACGCTGCTG | 11.6
6 | CAGCATACGACTTCTTCCCTGAAGCAATTGATAACCGTCTTGATTCGCTTGACGCTGCTG | 8.26
7 | CACAATTTTTACAGTAATGTAGCACGCGTAACACCTGTCTTGATTCGCTTGACGCTGCTG | 8.23
8 | CACAAGTTTTACAGTAATGTAGCACGCGTAACTCCTGTCTTGATTCGCTTGACGCTGCTG | 8.13
9 | CAGCATAGGACTTCTTCCCTGAAGCAATTAATAACCGTCTTGATTCGCTTGACGCTGCTG | 8.26
10 | TCCGGCTACCAGCTCCACCAACTTCAGGCCTTGTAGGTCTTGATTCGCTTGACGCTGCTG | 8.2
11 | CACAATTGTTACAGTAATGTAGCACGCGTAACTCCTGTCTTGATTCGCTTGACGCTGCTG | 8.19
12 | GATTAATTTCTGCCCTTATTCGCACGTGCTATAACAGTCTTGATTCGCTTGACGCTGCTG | 8.21
13 | CAGCATAGGACTTCTTCCCTGAAGCAAATGATAACCGTCTTGATTCGCTTGACGCTGCTG | 8.15
14 | TCCGGCTACCAGCTCCACCCACTTCAGGCCTGGTAGGTCTTGATTCGCTTGACGCTGCTG | 8.19
15 | CGGAAGTGTCGTAAACGTCGGATATCCAGTTCTTCTGTCTTGATTCGCTTGACGCTGCTG | 8.64
16 | TACTGACTTATAAATGCGAATGCACATGAATAGACCGTCTTGATTCGCTTGACGCTGCTG | 8.13
17 | GTGTATAGGATCCCATCCAACACACGAGTTAAAATGGTCTTGATTCGCTTGACGCTGCTG | 8.08
18 | TCCGGCTACCAGCTCCATCCACTTCAGGCCTTGTAGGTCTTGATTCGCTTGACGCTGCTG | 8.24
19 | CAGCATAGGGCTTCTTCCCTGAAGCAATTGATAACCGTCTTGATTCGCTTGACGCTGCTG | 8.25
20 | GCTGCTGCGGTGCATACCCCACCGGACGTGACCCCGGTCTTGATTCGCTTGACGCTGCTG | 8.55

Row | Sequence | binding signal (log fluorescence intensity)
21 | CACAATTATTACAGTAATGTAGCACGCGTAACTCCTGTCTTGATTCGCTTGACGCTGCTG | 8.22
22 | TACTGACTTATATATGCGAATGCACATCAATAGACCGTCTTGATTCGCTTGACGCTGCTG | 8.32
23 | GGAAAAAGGCCCAGGGTAACACCGGAATTGGGCTTAGTCTTGATTCGCTTGACGCTGCTG | 8.27
24 | GCTGCTGCGGTGCATACCCCACCGGATGTGTCCCCGGTCTTGATTCGCTTGACGCTGCTG | 9.62
25 | CGGAAGTGGCGTAAACGTCGGATATCCGGTTCTTCTGTCTTGATTCGCTTGACGCTGCTG | 11.7
26 | GTGTATAGGATCCCATCCAACACACGTGTTAAAACGGTCTTGATTCGCTTGACGCTGCTG | 8.25
27 | CTGGGACTTGACCCAACTCTGCCACGTGGGGCGTTTGTCTTGATTCGCTTGACGCTGCTG | 8.16
28 | TAAAGGGAAGTCGGTTGTGGTAGTTCCGGGTATTAAGTCTTGATTCGCTTGACGCTGCTG | 9.66
29 | TTCGGCTACCAGCTCCACCCACTTCAGGCCTTGTAGGTCTTGATTCGCTTGACGCTGCTG | 8.14
30 | TAAAGGGAAGCCGGTTGTGGTAGTTCCGGGTATTAAGTCTTGATTCGCTTGACGCTGCTG | 8.87
31 | GCTGCTGCGGTGCATACCCCAGCGGATGTGACCCCGGTCTTGATTCGCTTGACGCTGCTG | 8.5
32 | CACAATTTTTTCAGTAATGTAGCACGCGTAACTCCTGTCTTGATTCGCTTGACGCTGCTG | 8.14
33 | GATTAATATCTGCCCTTATTCGCACGTGCCATAACAGTCTTGATTCGCTTGACGCTGCTG | 8.16
34 | GTGTATAGGATCCCATCCAACACACGTGTTATAATGGTCTTGATTCGCTTGACGCTGCTG | 8.23
35 | CACAATTTTTACAGTAATGTAGCACGCGTAACTCGTGTCTTGATTCGCTTGACGCTGCTG | 8.15
36 | TACTGACTTATATATGCGAATGCACATGGATAGACCGTCTTGATTCGCTTGACGCTGCTG | 8.36
37 | CGGAAGTGTCGTAAAGGTCGGATATCCGGTTCTTCTGTCTTGATTCGCTTGACGCTGCTG | 11.8
38 | GTGTATAGGATCCCATCTAACACACGTGTTAAAATGGTCTTGATTCGCTTGACGCTGCTG | 8.21
39 | TAAAGGGAGGACGGTTGTGGTAGTTCCGGGTATTAAGTCTTGATTCGCTTGACGCTGCTG | 8.36
40 | TGTCGGGTAATGGAATGTAGATCACGTGAATGAAAAGTCTTGATTCGCTTGACGCTGCTG | 8.17
